# Measured values reported in the supplement of paper PMC11417369.
# The other results are listed elsewhere or left out.
# System: PfSIP2 AP2 domain 1 (GST-tagged)
# Assay: gcPBM binding intensity (ln(normalized median fluorescence intensity)); higher = stronger DNA binding
# Outline: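 Each value is the highest Masliner-normalised natural-log median intensity across replicate spots of either orientation of a probe. The probes were primer-extended double-stranded 36-bp intergenic genomic sequences on an Agilent 4 × 180k array, alongside negative controls, exposed for 1 h to GST-tagged P. falciparum DNA-binding domains expressed in E. coli. Bound protein was picked up with Alexa488 anti-GST antibody and scanned at 488 nm.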
row,Sequence,gcPBM binding intensity (ln)
1,ATATATTTTTTAAACACACACATAAATATTTGTGTA [CACACA_site2879],7.08
2,ATATATATATATATATGTACATATTTTAATAATTAA [XGTACX_site8549],9.52
3,CGCGCACACGGACACACACACACACGGATATAAATA [CACACA_site7102],7.46
4,TGTTGTTACATATATACACACATATATATATTATAT [CACACA_site2397],7.23
5,TAATATAGTATAGTATGTACATATAATTAGAATATT [XGTACX_site4053],7.29
6,TGGTATATATTTCCTTGTACATATAATATATATTGT [XGTACX_site3961],7.17
7,TATTAAAGGGGTTTCACACACATGTATAATTAATTT [CACACA_site200],6.83
8,AACCATATTTAGATTACACACAGTTTAAATATTTTA [CACACA_site6712],6.84
9,AATATGAACAGACACACACACACAAAAAAAAAAAAA [CACACA_site2012],7.19
10,AATTTGTTATGTATATGTACATAAATAGATATATGA [XGTACX_site3930],7.1
11,TCTTGACGAAGTAGAAGGATATATATATAAAAAAAA [CACACA_negctrl_site641],6.85
12,TCCAGGTATTTATTCTGTACACATAAAACATTTTAT [XGTACX_site8472],6.99
13,TCGTCTCTTCTTGTTCTGTTTTAGAAGGCTATATAT [CACACA_negctrl_site180],7.17
14,AGGAGGTCAGTTCACAGTACCCAGAAAACTCTACGA [XGTACX_site1992],6.55
15,CAAAACCTACATAACATACACACGCATATATAGAAT [CACACA_site2846],7.04
16,TTCTTATCAAGAGAAAGTACATAAAAAATTAATAAG [XGTACX_site1821],7.16
17,CATGCAATATTAAACACACACTCATATAGCACAATA [CACACA_site6182],7.24
18,CCAACAAAAATAAGCACACACAAATATACATACATA [CACACA_site3606],6.99
19,ACAGTATCTGGTAGCTGTACGGATTGTAGAGAGTAG [XGTACX_site4872],7.71
20,AGAATAATAAAATGGGTGCAATAGTTTTTTTTTTTT [GTGCAC_site9823],10.4
21,TTGGATTTTCCATAATGTACACATAAAAGTGTTACA [XGTACX_site4544],6.99
22,TTTTAAAAAATATAATATAATATAATATAAAATAAA [CACACA_negctrl_site154],6.83
23,TATACCTATAGACACACACACATATAGATTTATATA [CACACA_site7124],7.1

row,Sequence,gcPBM binding intensity (ln)
1,CGCATACACAGACACACACACACATATAAATATGTA [CACACA_site6444],7.47
2,AATTTTTTATTAAACACACAAACATATATATATATA [CACACA_site1937],9
3,GTTCATACTTAATATTGTACTTTTCATGTAGTGTAT [XGTACX_site6613],7.05
4,AAATAAATATTTATATGTACATATATTTTATAATAC [XGTACX_site7041],7.34
5,TAACATATTTTTAATACACACTCAAAAAAGTACTTA [CACACA_site5638],6.96
6,TACAAATATATATGCACACACATATACATACATATA [CACACA_site2182],7.31
7,TATTAGATATAATATATACACACCAACGAACGAAGA [CACACA_site1134],7.58
8,TTATATAATTTAATAGTGCAATTATATTAATTTTTC,7.73
9,ATATATATATGTTACTGTACTAATTTATATGTTAAT [XGTACX_site3341],9.11
10,AATACAAATATATACACACATACATACATACATATA [CACACA_site3147],7.14
11,TAGATATATAATTTGCGTACACAAATAATATATTTT [XGTACX_site6397],6.99
12,TAGTTTTCTTAAAGATGTACATTTTAAAAATAATCT [XGTACX_site255],7
13,CACAAAAATAGACACACACACATATAGATTTATTAT [CACACA_site7676],6.99
14,TTATGGTTTAAATAAAGTACAAATAAATAAATATAT [XGTACX_site5777],7.17
15,ATACACATATGTTAATGTACACATATATAATATTTA [XGTACX_site163],7.18
16,TTATGAAAAATAAAATTAGAAAAAAAGGAAAATGAA [XGTACX_negctrl_site232],6.96
17,TTTCTTAAATATATTGAGGAATAAAAAGAAGAAAAG [GTGCAC_negctrl_site281],7.09
18,AGGTTACATAGATTTTGTACATATATATTATTTTTT [XGTACX_site3040],6.91
19,AAAAAATTATAAAAGTGTACATATATATATATATAT [XGTACX_site154],9.3
20,CATATTTCTTTATTGGCACACATTTTTTCAATTATA [CACACA_site1618],7.19
21,AAAAAAAAAAAAAACACACACAAATTTAATCTATAT [CACACA_site6894],7.14
22,TGTTATTACTTTATATCATCTTAAAATAAGCATATT [CACACA_negctrl_site1501],6.85
23,TTGAAAATACAAAATTGTACAAAGATTTAAATAAAA [XGTACX_site1182],6.83

row,Sequence,gcPBM binding intensity (ln)
1,TGAAATAAATAATGCACACTCTACAGATATACGTAT [CACACA_site5270],7.3
2,TATTTATTTATGTGTTGTACAAATAAATAGAGGTAT [XGTACX_site6408],7.35
3,ATATATTAAAAACGATGTACCCTGAACTAAAAAAAA [XGTACX_site4986],7.13
4,TTTATTTATTACAATTTTTGAATCACCACACAGTCG [GTGCAC_negctrl_site413],7.02
5,ATCATGTTATATACATGTACATATATATATATATAT [XGTACX_site1329],9.66
6,TATATGAAAATGTTCATACACACATAAAAAAAAAAA [CACACA_site3237],6.93
7,TTAAAATAGATAAATAGTACTCTTTCCATTATGTAA [XGTACX_site6299],6.67
8,TATATAATAAGATATGCATGCACATGTAAAATGAAT [TGCATGCA_site499],8.94
9,ATAATGTTTTATAATACACACATTAGATATATAAAT [CACACA_site7834],6.91
10,TCATATAACACTTGATGTACAAGAATCCAAGTTGCA [XGTACX_site8758],7.01
11,ATATGTATAATATATATATATATATATATATATATA [CACACA_negctrl_site623],9.23
12,TAAATACTTTTATGTACACACATATAGATATATATT [CACACA_site5416],7.16
13,GTGATAAATATTATATGTACATATAATATTTATGTC [XGTACX_site8023],7.16
14,TTGAACCTGATAAATACACACAATATATATTTTTTT [CACACA_site2173],6.92
15,TCAAAAACGAGACATGCATGCAATTCATTTTGATTC [TGCATGCA_site212],6.6
16,CCATTCTTACTTTATTGTACTTGAAAATTTTTTTTA [XGTACX_site6160],7.29
17,TTTTTGTGCATTGATTGTACTTTCTAGGATTATTAA [XGTACX_site7070],8.15
18,TTTATCCAATAATCTGGTACACAATAATCATTCATG [XGTACX_site6192],6.84
19,TTTTTTTACTTAATAGTTCAACATATATCTCAATGT [CACACA_negctrl_site620],6.8
20,ATTCATATATACTTCACACACATTTTATCATTCAAA [CACACA_site2468],7.81
21,TTTCTATTTATTTCAAGTACTAAAAATATATATAAC [XGTACX_site8203],7.24
22,GAAATTATGTAAAAAAGTACTAACATACATATATAT [XGTACX_site1794],7.18
23,GAAAACGTCTTTAATAGTACACAGTTAAAAAATACA [XGTACX_site8976],7.08

row,Sequence,gcPBM binding intensity (ln)
1,TTTTTTCATTATATATAGTATGCAAGTCAAATTAAT [GTGCAC_negctrl_site207],7.05
2,TATATATATATATAAAGTACATATAATATATATTTG [XGTACX_site5412],9.15
3,TTTTTTTTTTTGATGGTGCAATATATTAAATAGAAA,10.1
4,AAAAAAAAAAAAAACATACACACATTGAACTTTTAT [CACACA_site3251],7.15
5,ACAAAATTTACAAAATGTACAAAATTTACAAAATAT [XGTACX_site3542],6.91
6,CTATAAAAATATAATTGTACAAATTTTTATATCTTA [XGTACX_site7722],6.84
7,AGAATCACCAAATATGTACACACCTTAACATGTTTA [CACACA_site2068],6.99
8,ATATAACATAATGGATGTACATGTATAAATATAAAA [XGTACX_site8228],7.1
9,ATATATATGGTCATTTGTACATATCGTGAGAGCTGC [XGTACX_site4117],7.12
10,TATATTATAAATTAATGTACGTAATTTTTTTTTTTT [XGTACX_site2500],6.99
11,TTTTTTTTTTACTTCACACATATACATTTATATTTA [CACACA_site4385],7.19
12,TAAACATACAGATACACACACACACCCACAGAGACA [CACACA_site4429],7.19
13,CTTGGGCGTCATAATGAACACACAATTATATTATGA [CACACA_site9297],6.71
14,TTATTACCATATTTTGTACACACATCTTTATCTCAA [CACACA_site9054],7.23
15,AAAATAATAAATAACGCATGCGTGTGCATTTTATTC [TGCATGCA_site898],7.15
16,ATATATACAAATCCTTTTTTCCAAGATGGAAAAAGA [CACACA_negctrl_site382],6.84
17,ATTATATAATCTATATGTACATATATATATATATAT [XGTACX_site4970],9.69
18,TATATATAAGCGCATGCACACGCAAAGGTATATAAA [CACACA_site8107],7.14
19,ATAATAATATTATTTTGTACATATGTGCTTATTTAT [XGTACX_site5540],7.17
20,TTTTGTCAACATTTTTATATTAGGTCTTGAACGATT [GTGCAC_negctrl_site72],6.9
